Test results as given in the supplement of paper PMC3334620.
Over roughly 33,000 sequences, “E-score (-0.5 to 0.5)” has its median near -0.017; the highest 2% begin near 0.3. The list shows a part of the results.

The sequences below were run against T1, Sut1 (UniProt P53032) (assay: PBM E-score (8-mer binding enrichment) (E-score (-0.5 to 0.5)); higher = stronger / more preferred TF binding; most listed sequences are background and not binding sites). Conditions: protein concentration: 200 nM; construct: GST-full length.
T1 sequence: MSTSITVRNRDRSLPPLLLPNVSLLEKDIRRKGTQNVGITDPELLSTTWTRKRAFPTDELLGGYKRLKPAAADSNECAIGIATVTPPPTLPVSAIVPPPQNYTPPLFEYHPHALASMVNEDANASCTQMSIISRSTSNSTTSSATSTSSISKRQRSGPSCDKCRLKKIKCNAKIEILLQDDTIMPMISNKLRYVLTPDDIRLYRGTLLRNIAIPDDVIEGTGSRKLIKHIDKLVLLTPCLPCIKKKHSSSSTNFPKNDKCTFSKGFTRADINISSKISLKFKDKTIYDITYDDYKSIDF
In short: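 Universal all-10-mer Agilent arrays, double-stranded by primer extension on fresh or once-stripped slides, were probed with about 100-200 nM GST-tagged yeast transcription factors made by PURExpress. Fluorescent anti-GST detected bound protein, and masliner normalised the scans. E-scores from the Universal PBM Analysis Suite were given to each ungapped eight-base word pooled with its reverse complement.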
With ACTACAAT the “PBM E-score” value was 0.191.
For GGCGCGCC, the “PBM E-score” value was 0.0324.
For ATTGCAAG, the “PBM E-score” value was -0.0371.
With CCCGAAAG the “PBM E-score” value was 0.15.
CATGTGGC was tested, and the “PBM E-score” value was -0.152.
AGGCAGAA was tested, and the “PBM E-score” value was -0.169.
For AAGGCTAT, the “PBM E-score” value was -0.13.
For AGATCACA, the “PBM E-score” value was -0.04.
With GAGATGAA the “PBM E-score” value was 0.00583.
For AAAATAGG, the “PBM E-score” value was 0.166.
In the case of CCGGCGCC, the “PBM E-score” value is reported as 0.0683.
With GCTAGAGA the “PBM E-score” value was -0.0509.
In the case of ACGGTTCG, the “PBM E-score” value is reported as -0.0488.
CGACTCTC was tested, and the “PBM E-score” value was -0.0232.
In the case of GAAAGACC, the “PBM E-score” value is reported as -0.00668.
For CAGGATAC, the “PBM E-score” value was -0.16.
In the case of AATCATAT, the “PBM E-score” value is reported as 0.157.
CTGTGTAA was tested, and the “PBM E-score” value was 0.0313.
With TAGGGAAA the “PBM E-score” value was 0.0398.
With GTGACAAC the “PBM E-score” value was -0.0779.
AAGCCTCC was tested, and the “PBM E-score” value was -0.0395.
CTTTCATA was tested, and the “PBM E-score” value was 0.143.
In the case of AAAATGTA, the “PBM E-score” value is reported as 0.182.
For ACGTTCGA, the “PBM E-score” value was -0.115.
With AGATGAAC the “PBM E-score” value was 0.0685.
With ATGACCAG the “PBM E-score” value was -0.165.
CTTGATTA was tested, and the “PBM E-score” value was 0.0248.
In the case of ATAGAGTG, the “PBM E-score” value is reported as 0.0862.
In the case of GGTGGACA, the “PBM E-score” value is reported as -0.0811.
In the case of AAATTCGG, the “PBM E-score” value is reported as 0.264.
For CTATATCA, the “PBM E-score” value was 0.157.
With CAGGCACG the “PBM E-score” value was -0.00271.
For CCCGCTCC, the “PBM E-score” value was -0.364.
For AAGGCCGC, the “PBM E-score” value was -0.176.
AGATTGGC was tested, and the “PBM E-score” value was -0.0976.
In the case of GGTTGCGA, the “PBM E-score” value is reported as 0.061.
In the case of CGGGGTTA, the “PBM E-score” value is reported as 0.382.
In the case of ATAGCAAT, the “PBM E-score” value is reported as 0.193.
In the case of AATGTTGC, the “PBM E-score” value is reported as -0.00976.
With AAGTTGCG the “PBM E-score” value was 0.108.
ACAAGACT was tested, and the “PBM E-score” value was -0.0974.
For CCCAGGGG, the “PBM E-score” value was -0.327.
With GGTAGCCA the “PBM E-score” value was 0.0621.
In the case of AGAGCAGG, the “PBM E-score” value is reported as -0.0733.
In the case of TATCGAGA, the “PBM E-score” value is reported as -0.0451.
For GCCAAGAC, the “PBM E-score” value was -0.206.
With CTGACCAC the “PBM E-score” value was -0.0844.
In the case of ATTCGCCA, the “PBM E-score” value is reported as -0.0811.
AAAATCTC was tested, and the “PBM E-score” value was 0.0709.
For CTTCGAGC, the “PBM E-score” value was 0.0866.
With CGTGATGA the “PBM E-score” value was -0.0744.
CATTAAAA was tested, and the “PBM E-score” value was 0.231.
With ATGCTAAT the “PBM E-score” value was 0.148.
AAGTCGCT was tested, and the “PBM E-score” value was -0.0636.
GGAGGCCC was tested, and the “PBM E-score” value was -0.198.
With CGCCGGGC the “PBM E-score” value was 0.00809.
GAGCTTAC was tested, and the “PBM E-score” value was 0.14.
AGGCCTCC was tested, and the “PBM E-score” value was -0.207.
In the case of ATTGGCTG, the “PBM E-score” value is reported as -0.179.
For GGATTCAC, the “PBM E-score” value was 0.0757.
In the case of TATTGTAA, the “PBM E-score” value is reported as 0.117.
In the case of TCACCTCA, the “PBM E-score” value is reported as -0.09.
In the case of CGGCTCAA, the “PBM E-score” value is reported as 0.0677.
AGCCCTAG was tested, and the “PBM E-score” value was -0.0689.
With GCTAACCA the “PBM E-score” value was -0.188.
In the case of GACCAAAA, the “PBM E-score” value is reported as 0.178.
GCGGATAA was tested, and the “PBM E-score” value was 0.111.
In the case of AACTCAGT, the “PBM E-score” value is reported as -0.0134.
ATGTACAC was tested, and the “PBM E-score” value was 0.139.
In the case of CCCGGGGC, the “PBM E-score” value is reported as -0.0629.
With CCCTGACG the “PBM E-score” value was -0.359.
In the case of CACGCGGA, the “PBM E-score” value is reported as 0.283.
With GAACCATC the “PBM E-score” value was 0.0887.
For AAAGCATA, the “PBM E-score” value was 0.138.
ATCTATAA was tested, and the “PBM E-score” value was 0.23.
For CAGGTACA, the “PBM E-score” value was -0.124.
For CATATTCC, the “PBM E-score” value was -0.0615.
With GGGCTCCA the “PBM E-score” value was -0.126.
TACACAAA was tested, and the “PBM E-score” value was 0.215.
In the case of AACTACAC, the “PBM E-score” value is reported as 0.129.
CCGCCAAA was tested, and the “PBM E-score” value was 0.0836.
CCACCCAG was tested, and the “PBM E-score” value was -0.129.
With AATAGCTA the “PBM E-score” value was 0.0556.
In the case of GTATGGAA, the “PBM E-score” value is reported as -0.012.
With GATAGTCA the “PBM E-score” value was -0.0531.
CCTGTGAA was tested, and the “PBM E-score” value was 0.109.
GCTCTTAA was tested, and the “PBM E-score” value was 0.0971.
With GGGGTAGA the “PBM E-score” value was 0.097.
For ATTTTTCG, the “PBM E-score” value was 0.248.
GGGTTCAA was tested, and the “PBM E-score” value was 0.0726.
In the case of CCGGATAA, the “PBM E-score” value is reported as 0.285.
GTTGGAGA was tested, and the “PBM E-score” value was 0.129.
In the case of CTCTCCCA, the “PBM E-score” value is reported as -0.23.
For ACGGCAGG, the “PBM E-score” value was -0.293.
With GTATATGA the “PBM E-score” value was 0.14.
ATTTACTA was tested, and the “PBM E-score” value was 0.211.
With CTATTGTC the “PBM E-score” value was -0.099.
With ACGGGAAT the “PBM E-score” value was -0.0866.
In the case of GATGGAAA, the “PBM E-score” value is reported as -0.0163.
In the case of TCCTCTCA, the “PBM E-score” value is reported as 0.00795.
ACCAAGTA was tested, and the “PBM E-score” value was -0.0637.
In the case of GTTGTGAA, the “PBM E-score” value is reported as 0.0279.
In the case of GTCGGGTA, the “PBM E-score” value is reported as -0.0857.
In the case of GGGTCTAA, the “PBM E-score” value is reported as -0.14.
For CTTAGATA, the “PBM E-score” value was 0.0662.
In the case of ATACCGTA, the “PBM E-score” value is reported as 0.0339.
AATCGCCT was tested, and the “PBM E-score” value was -0.00487.
ATGGCCAT was tested, and the “PBM E-score” value was -0.062.
With GTTACTAA the “PBM E-score” value was 0.00172.
With CTGTTCGC the “PBM E-score” value was -0.096.
CTGGGGTA was tested, and the “PBM E-score” value was -0.187.
With GCCCACCC the “PBM E-score” value was -0.242.
In the case of GGCCTACA, the “PBM E-score” value is reported as -0.0249.
For CGGGGAAC, the “PBM E-score” value was 0.0676.
For AAAATCGC, the “PBM E-score” value was 0.159.
With CCGTACAG the “PBM E-score” value was 0.0728.
AACGCTCG was tested, and the “PBM E-score” value was -0.0092.
In the case of CCAAACTC, the “PBM E-score” value is reported as 0.0933.
For CGACCTAC, the “PBM E-score” value was -0.104.
In the case of ACCCGCGC, the “PBM E-score” value is reported as -0.0941.
In the case of GATGGGGC, the “PBM E-score” value is reported as -0.294.
CAATCACA was tested, and the “PBM E-score” value was 0.0975.
In the case of AAACCCAA, the “PBM E-score” value is reported as 0.174.
With ATGAATTC the “PBM E-score” value was 0.142.
With AACAATCA the “PBM E-score” value was 0.22.
ATCATAGG was tested, and the “PBM E-score” value was 0.0602.
For ACCGTAGT, the “PBM E-score” value was 0.138.
TGTGTAAA was tested, and the “PBM E-score” value was 0.194.
With CACTTTCC the “PBM E-score” value was 0.216.
With ACCCGAAG the “PBM E-score” value was -0.178.
With GCGTTAGC the “PBM E-score” value was -0.0681.
For CAAATTAC, the “PBM E-score” value was 0.14.
With GAGACGAC the “PBM E-score” value was -0.112.
For CTTAGGAA, the “PBM E-score” value was 0.172.
GGGTGCGA was tested, and the “PBM E-score” value was -0.217.
In the case of AGGTGTCA, the “PBM E-score” value is reported as -0.0314.
With TGTTCAAA the “PBM E-score” value was 0.126.
CCGAAAAA was tested, and the “PBM E-score” value was 0.352.
In the case of AAAAATCA, the “PBM E-score” value is reported as 0.183.
For GTTCAGGA, the “PBM E-score” value was -0.276.
In the case of CCATACAA, the “PBM E-score” value is reported as 0.0626.
In the case of AGAGTAAC, the “PBM E-score” value is reported as 0.0673.
For ACGATAGG, the “PBM E-score” value was -0.0827.
In the case of TCAACTAA, the “PBM E-score” value is reported as 0.181.
For GACGTTAA, the “PBM E-score” value was 0.0697.
With AACTTAGG the “PBM E-score” value was 0.0876.
For GTCTGGCA, the “PBM E-score” value was 0.0139.
For CACATACG, the “PBM E-score” value was -0.118.
CGTGTACC was tested, and the “PBM E-score” value was -0.0552.
In the case of GGCCATTA, the “PBM E-score” value is reported as 0.00383.
With CAGTTGGC the “PBM E-score” value was -0.162.
In the case of ACGCGATA, the “PBM E-score” value is reported as -0.123.
For ACTATTAA, the “PBM E-score” value was 0.12.
With AGAAATGC the “PBM E-score” value was 0.048.
CGAGGAAC was tested, and the “PBM E-score” value was -0.019.
With ATTCTGGA the “PBM E-score” value was 0.11.
For AAGCAGCA, the “PBM E-score” value was -0.0845.
For ATTAGTCA, the “PBM E-score” value was 0.141.
In the case of CGGTCTGA, the “PBM E-score” value is reported as 0.00124.
With GTTGCCAA the “PBM E-score” value was -0.0757.
AATATCGG was tested, and the “PBM E-score” value was 0.197.
For AATCGCAG, the “PBM E-score” value was 0.018.
In the case of TCAGACAA, the “PBM E-score” value is reported as -0.00742.
In the case of GGGCGATA, the “PBM E-score” value is reported as -0.27.
CAGATAAA was tested, and the “PBM E-score” value was 0.106.
In the case of AATTTCTA, the “PBM E-score” value is reported as 0.285.
For GTGCCCCA, the “PBM E-score” value was -0.316.
For AAACCCGG, the “PBM E-score” value was 0.189.
In the case of GATCTTTA, the “PBM E-score” value is reported as 0.182.
AGGTCTTC was tested, and the “PBM E-score” value was -0.256.
With ATTGGATG the “PBM E-score” value was 0.0551.
GACCACCA was tested, and the “PBM E-score” value was -0.12.
